The whole screen tested about 150,000 compounds, of which about 540 (0.36%) showed an effect of 50% or more. Some of the results follow.

The test system of the test is Plasmodium falciparum. Description: Primary screen in NF54 nanoGlo assay, in single point, at 2uM, 72h; a lower Z score goes with more inhibition. The test is classed as functional, Erythrocyte. As to conditions: timepoint 72 hour.
For `O=C(CNC1(c2cccc(Br)c2)CC1)N1CCNC1=O`, the % Inhibition (usually the drop in the measured response relative to a control, in per cent) was determined as 1% and the Z score was -0.06.
The corresponding values for `O=S(=O)(Cc1cc(Cl)ccc1F)N[C@@H](CCO)C1CCCCC1` are 8% and -1.3.
For `CCS(=O)(=O)CCn1ccnc1-c1cc2c(cc1OC)OCO2` the same measures were -16% and 2.2.
The corresponding values for `Cc1nnnn1CCCN1CCc2onc(-c3cccc4ccccc34)c2C1` are 7% and -0.94.
On to `CCC(CC)(CO)CNC(=O)Nc1cccc(F)c1F`, for which the “% Inhibition” value is recorded as -6% and the Z score is reported as 0.72.
On to `Cc1cccc(NC(=O)c2cccc(N3C[C@@H](C(=O)Nc4cc(C)ccc4C)CC3=O)c2)c1`, for which the “% Inhibition” value is reported as -9% and the Z score came to 0.89.
The corresponding values for `COc1ccccc1CN[C@H](c1ccccc1)c1cc2ccccc2o1` are 0% and 0.01.
For `CCCc1cc(N2CCC3(CC2)C[C@@H](C(=O)O)N(C(C)=O)C3)nc(C)n1` the same measures were -11% and 1.36.
Take `Cc1ccccc1Cn1nc(C(C)C)nc1CCCC(N)=O`: the “% Inhibition” value is -2% and the Z score came to 0.27.
On to `CC(NC(=O)C1CCN(S(=O)(=O)c2ccc3c(c2)CCC3)CC1)C1CC2CCC1C2` (centres undefined), for which the “% Inhibition” value came out at 1% and the Z score is given as -0.22.
The corresponding values for `COc1cccc(C(=O)N2CCN(C(=O)c3ccc4nc(C)c(C)nc4c3)CC2)c1` are 9% and -1.23.
Consider `Cc1cc(CN(C)C(=O)N[C@H](c2cccs2)C2CCCCC2)on1`, for which the “% Inhibition” value is 0% and the Z score is -0.02.
For `Nc1nnc([C@H]2CCCN(Cc3ccc4cnccc4c3)C2)o1` the same measures were -17% and 1.96.
The corresponding values for `NC(=O)c1csc(CCN2C(=O)c3ccccc3C2=O)n1` are 26% and -2.95.
For `Cc1nc(C#N)c(C#N)n1Cc1nc(-c2cccs2)no1` the same measures were -5% and 0.69.
In the case of `CC[C@@H](C(=O)N1CCc2ccccc21)n1cnc2onc(-c3ccc(Cl)cc3)c2c1=O`, the “% Inhibition” value is listed as -2% and the Z score is 0.42.
For `COCCn1ccnc1-c1[nH]cnc1-c1ccccc1` the same measures were 3% and -0.45.
The corresponding values for `COc1cccc(CNC(=O)Cn2ccc3ccc(N4CCCCCC4)nc32)c1` are -11% and 1.52.
For `Cc1sc(C)c(S(=O)(=O)Nc2ccccc2Cl)c1-c1cc(C(F)(F)F)on1` the same measures were -1% and 0.09.
With `Cc1n[nH]c(C)c1CC(=O)N(C)CC1(CO)CCCC1`, the “% Inhibition” value is reported as -1% and the Z score is reported as 0.18.
For `NC(=O)Cc1cccc(NC(=O)N[C@H]2COC[C@@H]2N2CCCCC2)c1` the same measures were 17% and -2.13.
The corresponding values for `Cc1nnc2n1CCN(CC(=O)NC1(C#N)CCCC1)C2` are 3% and -0.51.
As for `C[C@H](O)c1onc(-c2cccs2)c1C(=O)NC(C)(C)C`, the “% Inhibition” value was 32% and the Z score was -3.57.
The corresponding values for `Cn1cnc(CCNS(=O)(=O)c2cn(C)nc2C2CCCC2)c1` are -6% and 0.92.
The corresponding values for `Cc1nc(NCc2cc3n(n2)CCN(CC(C)C)C3)c2cccnc2n1` are -9% and 0.98.
The corresponding values for `O=C(c1cnc(-c2cccnc2)nc1)N1C[C@H]2CC[C@@H](C1)N(CC1CC1)C2` are -1% and 0.24.
`CCN(C[C@H](O)c1cccc(O)c1)C(=O)NCc1n[nH]c(C)n1`: the “% Inhibition” value was -18% and the Z score came out at 2.61.
For `O=C(NCCN1CCCOCC1)c1cnc(-c2ccccn2)s1` the same measures were -19% and 2.67.
For `CCN(CCC(F)(F)F)C(=O)Nc1cccc(Cl)c1OC` the same measures were -7% and 0.67.
For `O=C(c1ccnc(-c2ccoc2)c1)N1CCOCC1` the same measures were -6% and 1.
As for `COc1ccc(N2C[C@@H](C(=O)N(C)Cc3cc(C)on3)CC2=O)cc1`, the “% Inhibition” value is recorded as 4% and the Z score is -0.56.
For `CCNC(=O)Cn1ccc(NC(=O)c2cccnc2OCC(C)C)n1` the same measures were -2% and 0.25.
The corresponding values for `Cc1ccc(-c2ccnc(-c3cccc(CN)c3)n2)c(C)n1` are 1% and -0.1.
For `Cc1cc([C@@H]2CCCN2c2ncnc3c2CN(C)CC3)no1` the same measures were 0% and 0.04.
For the molecule `CCCc1cc(C(=O)N(CCO)CC2CCCCC2)no1`, the “% Inhibition” value came to 0% and the Z score is reported as -0.05.
For `CN(Cc1nc(O)c2ccccc2n1)C(=O)c1cccc(S(=O)(=O)N2CCCC2)c1` the same measures were -15% and 2.33.
The corresponding values for `Cc1cc(NC(=O)N2CCCN3CCC[C@H]3C2)ccc1F` are -16% and 2.36.
As for `Cc1nc(C)c(COc2ccc3c(c2)CCNC3=O)s1`, the “% Inhibition” value was -8% and the Z score was determined as 1.52.
The corresponding values for `O=C1C[C@H](CNc2nccc3cccnc23)CN1C1CC1` are -11% and 1.72.
For `C[C@H]1CN(C(=O)CN(C)Cc2ccc(Cl)s2)CCO1` the same measures were -1% and 0.17.
The corresponding values for `CC(C)(C)c1cn(-c2cccc(S(F)(F)(F)(F)F)c2)nn1` are -5% and 0.6.
Regarding `CC#CCNC(=O)NCC(C)(C)CC1CCOCC1`, the “% Inhibition” value is given as -4% and the Z score came to 0.43.

These data come from ChEMBL document CHEMBL4888484, “Replenishing the malaria drug discovery pipeline: Screening and hit evaluation of the MMV Hit Generation Library 1 (HGL1) against asexual blood stage Plasmodium falciparum ,using a nano luciferase reporter read-out” (2022).
